According to US20240150432A1 (SHANGHAI CELGEN BIO PHARMACEUTICAL, published 2024):

Tests used:
[1] = target: T1, Recombinant human TNFα (human, UniProt P01375 part only); assay: cell-based or functional assay
[2] = target: T1, Recombinant human TNFα; assay: ELISA, TNFα coated, fusion protein titrated, anti-human IgG Fc detection
Procedure: Recombinant human TNFα (Novoprotein) was dissolved in PBS (pH 7.4) to a final concentration of 0.8 μg/mL and added with 50 μL/well recombinant protein in a 96 well ELISA plate, and stored overnight in a refrigerator at 4° C. The next day, ELISA plates were washed three times with PBST (PBS containing 0.05% Tween-20), and 100 μL/well of blocking solution of PBST containing 3% BSA was added. ELISA plates were placed in an incubator at 37° C. for 1 hour. The fusion proteins were diluted in the binding solution of PBST containing 1% BSA to prepare three-fold serial dilutions. The blocking solution was removed and diluted proteins were added at 50 μL/well, respectively. The reaction was carried out for 1 hour at 37° C. The solution was poured off, and the ELISA plate was washed three times with PBST. Then 50 μL/well of secondary antibody (alkaline phosphatase-conjugated sheep-anti-human IgG Fc antibody, Jackson ImmunoResearch Lab) was added and the reaction was performed in a 37° C. incubator for 1 hour. The chromogenic antibody was poured out, and 200 μL/well PBST cleaning solution was added to the ELISA plate. The ELISA plate was placed on a horizontal shaker for 5 minutes at 100 RPM, the cleaning solution was poured out, and the cleaning was repeated for 4 times. […] An enzyme-linked immunosorbent assay was used to read the plate at a wavelength of 405 nm/490 nm.

T1 sequence (P01375 77-233 limits assumed): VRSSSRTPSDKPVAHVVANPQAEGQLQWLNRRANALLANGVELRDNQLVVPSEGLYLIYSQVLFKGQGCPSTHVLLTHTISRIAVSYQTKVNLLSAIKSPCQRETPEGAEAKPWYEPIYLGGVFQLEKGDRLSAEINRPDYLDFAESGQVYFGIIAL

Row | EC50 against TNFα-induced apoptosis in L929 cells [1] [µg/mL] | EC50 [2] [µg/mL] | Binder
1 | 0.027 | 0.046 | TNFR2-BCMA-Fc fusion protein (Fc fusion) LPAQVAFTPYAPEPGSTCRLREYYDQTAQMCCSKCSPGQHAKVFCTKTSDTVCDSCEDSTYTQLWNWVPECLSCGSRCSSDQVETQACTREQNRICTCRPGWYCALSKQEGCRLCAPLRKCRPGFGVARPGTETSDVVCKPCAPGTFSNTTSSTDICRPHQICNVVAIPGNASMDAVCTSTSPTRSMAPGAVHLPQPVSTRSQHTQPTPEPSTAPSTSFLLPMGPSPPAEGSTGDGQCSQNEYFDSLLHACIPCQLRCSSNTPPLTCQRYCNASVTNSVKGTNA[human IgG1 Fc not given here]
2 |  | 0.189 | TNFR2-BAFFR-Fc fusion protein (Fc fusion) LPAQVAFTPYAPEPGSTCRLREYYDQTAQMCCSKCSPGQHAKVFCTKTSDTVCDSCEDSTYTQLWNWVPECLSCGSRCSSDQVETQACTREQNRICTCRPGWYCALSKQEGCRLCAPLRKCRPGFGVARPGTETSDVVCKPCAPGTFSNTTSSTDICRPHQICNVVAIPGNASMDAVCTSTSPTRSMAPGAVHLPQPVSTRSQHTQPTPEPSTAPSTSFLLPMGPSPPAEGSTGDDAPAPTPCVPAECFDLLVRHCVACGLLRTPRPKPA[human IgG1 Fc not given here]
3 | 0.023 |  | TNFR2-TACI-Fc fusion protein (Fc fusion) LPAQVAFTPYAPEPGSTCRLREYYDQTAQMCCSKCSPGQHAKVFCTKTSDTVCDSCEDSTYTQLWNWVPECLSCGSRCSSDQVETQACTREQNRICTCRPGWYCALSKQEGCRLCAPLRKCRPGFGVARPGTETSDVVCKPCAPGTFSNTTSSTDICRPHQICNVVAIPGNASMDAVCTSTSPTRSMAPGAVHLPQPVSTRSQHTQPTPEPSTAPSTSFLLPMGPSPPAEGSTGDSLSCRKEQGKFYDHLLRDCISCASICGQHPKQCAYFCENKLR[human IgG1 Fc not given here]
